Experimental data as given in the BET-seq Pho4 binding data (Le et al. 2018).
The other results are listed elsewhere or left out. These are noisy estimates, calculated here from bound and input reads.

Molecular target: T1, Pho4 (S. cerevisiae) (UniProt P07270)
T1 sequence: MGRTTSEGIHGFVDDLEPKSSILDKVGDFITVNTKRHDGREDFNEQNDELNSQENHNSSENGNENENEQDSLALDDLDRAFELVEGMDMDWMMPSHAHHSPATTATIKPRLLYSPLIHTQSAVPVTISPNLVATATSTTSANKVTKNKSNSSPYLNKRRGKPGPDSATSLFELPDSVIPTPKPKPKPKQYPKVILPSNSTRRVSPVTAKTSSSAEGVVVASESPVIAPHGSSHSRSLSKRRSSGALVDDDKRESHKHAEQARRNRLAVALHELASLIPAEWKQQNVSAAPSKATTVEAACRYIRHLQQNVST
Test: relative binding free energy (BET-seq); higher = weaker binding
Settings: reference: library average

Sequence	relative binding free energy [kcal/mol]
TTAGGCACGTGATAGT	-0.1
CAGGGCACGTGTGTGA	-0.18
TTTAGCACGTGGCAGG	-0.12
TTGGTCACGTGGTACG	0
TTATTCACGTGTGGCA	0.25
GTTGCCACGTGATGAG	0.17
TAGTTCACGTGAGTTC	0.29
TGTTTCACGTGGGGTT	0.15
TTTACCACGTGAATTT	0.42
ATTTGCACGTGGGCCT	-0.06
GGGCACACGTGGGAGG	-0.06
GGGGGCACGTGGATGC	-0.03
ATGTGCACGTGGGTGC	-0.08
TTATACACGTGGGATA	0.05
GTTGCCACGTGTGGTG	0.06
TATGTCACGTGTCGAG	-0.02
TTTTACACGTGTACGG	0.07
TTGGTCACGTGAATTT	0.31
GTCGGCACGTGGATAT	-0.04
TAAATCACGTGGTGCT	0
AGGGCCACGTGAGGGT	0.05
CGATTCACGTGGGAGT	0.2
ATTTGCACGTGTCGGC	0.09
CTCGGCACGTGTGGGA	-0.07
AAGGGCACGTGGGCTA	-0.18
GAAATCACGTGGTTTT	0.26

Sequence	relative binding free energy [kcal/mol]
GTGTCCACGTGGTCTG	-0.01
AATTTCACGTGGTAGT	0.14
TTGAACACGTGTTTTT	0.08
GGACTCACGTGGTAGT	0.11
TAATTCACGTGCAGGT	0.28
AGGGGCACGTGCGGAT	-0.24
ATTATCACGTGTTGTG	0.16
GGTGTCACGTGGCTAA	-0.03
TATGGCACGTGAGCGT	-0.05
TGAATCACGTGGGGGC	0.08
GTATGCACGTGTCGTT	0.16
TCAGTCACGTGGCGAG	0.13
GGTTACACGTGAGGGC	0.26
TATCGCACGTGCTTGT	0.03
TAATCCACGTGGGATT	0.01
ATTTTCACGTGAAGTT	0.39
TTAGGCACGTGAGATT	0.29
GGGTCCACGTGGTATG	0.02
TAGGTCACGTGCGGGG	0
GTGGACACGTGTTCAG	0.09
GGGAGCACGTGGTATG	-0.06
TATTTCACGTGTGTAT	0.22
ACAGTCACGTGGTTGG	-0.06
TAGGTCACGTGGGGGT	0.1
TCTCGCACGTGTTGGT	-0.03
AGACGCACGTGAGTGG	-0.07

Sequence	relative binding free energy [kcal/mol]
AGAGTCACGTGGGCAA	0.01
GTGGTCACGTGATCGG	0.26
TTCTTCACGTGCGATT	0.46
AAGGGCACGTGGATAG	-0.17
ATGTACACGTGGGAGT	-0.14
TTGGTCACGTGGGCGG	-0.08
AGCGACACGTGGTGGA	0.1
GGAAACACGTGCTTGT	0.09
GTTTACACGTGCGATT	0.05
AATATCACGTGGTGGC	0.03
GTATGCACGTGGGGGT	-0.11
GCGTTCACGTGTGGCA	0.35
ATGAGCACGTGTTTTG	0.04
AGGGACACGTGGTCTT	0.05
ATTTACACGTGAATAT	0.16
CGGGTCACGTGGTGAG	0.01
GAGGTCACGTGGCCTG	0.11
TTAGCCACGTGTGGGG	0
AATTTCACGTGATATA	0.44
TGATACACGTGTGTCG	-0.03
CGTGACACGTGTTGCG	0.04
ATCTTCACGTGTGTGG	0.15
TAAGGCACGTGTTTTA	0.01
TTATGCACGTGAGGCG	0.13
TTCATCACGTGGCGGT	0.14
TGGCGCACGTGTCTTG	-0.03

Sequence	relative binding free energy [kcal/mol]
GTTGTCACGTGTGCTC	0.2
ACAATCACGTGGTGAT	0.15
AGGAGCACGTGGATGA	-0.01
GTTAGCACGTGGCGAG	0.11
GTCTGCACGTGAATGG	0.1
GTGCTCACGTGGGTTA	0.18
GTGCGCACGTGAAGTA	0.2
TGGTGCACGTGCGGCT	-0.06
GTCGGCACGTGTTGGC	0.05
AGTTACACGTGTTGCT	0.17
TAGGACACGTGTTAAG	0.06
GGGAACACGTGTAGTT	0.23
ATTCTCACGTGGTAAT	0.16
TGGGACACGTGAGGTC	0.15
AGTGGCACGTGCTCTG	-0.26
TGAAGCACGTGAAGTG	0.25
TTGGCCACGTGTTAGG	0.03
TGCGGCACGTGGTCGG	-0.21
GGTACCACGTGTAGTT	0.24
AATTTCACGTGGATGT	0.22
TTATACACGTGAGCGG	0.22
GGTAACACGTGTGGGC	0.12
ATTGTCACGTGTTTGA	0.23
TCTATCACGTGTTAGG	-0.01
TGACGCACGTGTAGTG	-0.22
AGGGGCACGTGGTCCG	-0.24

Sequence	relative binding free energy [kcal/mol]
CGAGACACGTGGTAGG	-0.1
GCGTGCACGTGCGTTG	-0.17
GCTTTCACGTGGTTGG	0.38
GGGAACACGTGGGAGG	-0.15
GTGGTCACGTGAAATT	0.43
GGTGGCACGTGGGCTA	-0.14
CAGGGCACGTGAAGGT	-0.03
GTGTTCACGTGTGATA	0.28
TTGGTCACGTGTGATA	0.15
GAGTTCACGTGGGAGT	0.32
TCTGTCACGTGGTTAA	0.04
GCAATCACGTGAGGGG	0.31
AGTGGCACGTGGGTTC	-0.22
CTTACCACGTGTGGGT	0.04
GGCGGCACGTGCATGG	-0.16
GGACTCACGTGGGGAG	0.23
GTTTCCACGTGGGGGA	-0.07
GTTACCACGTGGAGGG	-0.13
GAGGGCACGTGGCTTG	-0.12
TAATTCACGTGCTTTT	0.13
GTGTTCACGTGCTCGT	0.14
TGCAGCACGTGGGGGC	-0.15
AATAGCACGTGGATGT	-0.07
TTTTACACGTGATGGG	0.31
CGTTTCACGTGGTTTA	0.18
ATTTTCACGTGCTAGT	0.07

Sequence	relative binding free energy [kcal/mol]
TTGCGCACGTGTTGAG	-0.11
ATGTTCACGTGGTGAT	0.17
TGTGACACGTGCGTGA	-0.13
AAAGTCACGTGGCGTA	0.03
TGGGACACGTGGAGTG	0.02
GTCGGCACGTGGTTCA	-0.01
CGGGTCACGTGCTTGG	0.21
ATGGCCACGTGGTGGC	-0.1
TCAGGCACGTGTTTTA	-0.11
TAGATCACGTGATTTA	0.22
TGCAGCACGTGGCGAG	-0.05
GTAAACACGTGTTTGA	-0.06
GGGAGCACGTGTCGTG	0
GTTTTCACGTGGTAAA	0.33
ATGGGCACGTGGGAGG	-0.21
CAGTACACGTGTGTGG	0.04
GACGGCACGTGAAGGG	0.37
AGCTGCACGTGTGAGT	0.05
GGTTGCACGTGGCGTT	-0.06
ATAGGCACGTGTTGCT	-0.18
AGCGGCACGTGGTGTT	-0.13
GTGATCACGTGTCATT	0.22
AAAGTCACGTGTTGGA	0.17
AAGTGCACGTGCGCTG	0
GTTGTCACGTGCTTAG	0.12
GGGCGCACGTGTGCGT	-0.07

Sequence	relative binding free energy [kcal/mol]
GGGTGCACGTGGGTAA	-0.06
GGACTCACGTGATTGG	0.41
AGAGGCACGTGGGTAG	-0.24
TTAATCACGTGTGCGT	-0.02
GATAACACGTGTGATG	0.1
TGGGCCACGTGAGTGG	0.02
AGGTTCACGTGCAAGT	0.18
ACTGGCACGTGTGGCT	-0.06
AATTACACGTGTATTG	0.08
TGTGGCACGTGTGGCT	0.04
TAGTTCACGTGTACTA	0.32
ATCGTCACGTGGCTGG	0.04
TAAGACACGTGGTGGG	0.02
GAGGCCACGTGTTTGG	0.02
GTATGCACGTGTGCTT	0.03
CGGAGCACGTGGTAGG	-0.19
ACTAGCACGTGTTGTG	-0.11
TTGGACACGTGACTGG	0.18
GTATGCACGTGGGGTA	-0.1
TTTAGCACGTGATGGG	0
GGCAGCACGTGGGGAA	-0.05
ATTGTCACGTGACTAG	0.23
AGAGTCACGTGCAGTT	0.13
ATCGGCACGTGCGGAG	0.01
TATGGCACGTGTGAGC	0.02
TATAACACGTGTTAAG	-0.01

Sequence	relative binding free energy [kcal/mol]
AATTTCACGTGCGAGG	0.35
GATAACACGTGTGGTG	0.14
TCTTACACGTGCGGTT	0.11
TCGGACACGTGCTGTT	0.16
GCGGTCACGTGGATCT	0.43
GTTTTCACGTGGCAAG	0.32
TGTTACACGTGTTATA	0.07
TGCGGCACGTGGTATA	-0.07
GGATTCACGTGTTACT	0.45
GTTTGCACGTGTAGTC	0.17
GGGCGCACGTGACGTG	0.02
TGTTGCACGTGTATTA	0.1
TGGCCCACGTGGGGAG	-0.19
TTGACCACGTGTTAGG	0.03
TGGTGCACGTGTTATC	-0.1
AATATCACGTGTTGGG	-0.04
ACGAGCACGTGTGGTG	-0.07
AACGTCACGTGTTGAA	0.27
TAAAGCACGTGCAGGG	-0.2
GTGGGCACGTGAAAGT	0.13
ATTGGCACGTGGGTCT	-0.23
TCGGGCACGTGGTAAA	-0.04
ATCGACACGTGGGGTA	-0.08
GGTAACACGTGTGCTG	0
GTGGTCACGTGTTCTA	0.04
TCCGTCACGTGTGGGG	0.26

Sequence	relative binding free energy [kcal/mol]
TGTCACACGTGTTTAT	0.05
TGAGGCACGTGCGGAG	-0.24
TTACGCACGTGAGTTG	0.16
GGCGGCACGTGCGGGA	-0.11
TCCGGCACGTGTTGGG	0.03
ACGTTCACGTGTGGGG	0.25
ATATACACGTGTTAGG	0.03
TTGGTCACGTGGGTCA	0.04
TTTAACACGTGTGCTG	-0.05
CAGAGCACGTGTTGTG	-0.22
TGGACCACGTGGTAGG	-0.06
AATATCACGTGCTTGG	0.17
GTAGGCACGTGCGGCT	-0.07
TGTATCACGTGTAATT	0.27
TGTCACACGTGTGGGT	0.08
CTGTACACGTGAGTAT	0.28
GGTGACACGTGGGTTA	0.08
TTTGACACGTGAGTGT	0.18
CTAGACACGTGGTGGG	-0.06
TTGGGCACGTGCGGGC	-0.18
GTTATCACGTGCTGTA	-0.01
GAATACACGTGTGAGT	0.24
